Source: patent publication US20030229082A1, “Inhibition of RNA function” (The Regents of the University of California, priority 2002, published 2003)

System: hybrid RevTat protein on the RRE
Test: CAT assay in HeLa cells, heterologous tethering control
Settings: specificity control

SMILES: CN1CCN(CCCN2c3ccccc3Sc3ccc(Cl)cc32)CC1 [prochlorperazine]
- effect on the hybrid RevTat protein on the RRE: no effect
